Experimental data as given in PubChem BioAssay AID624260 (Broad Institute, 2012).
In all, about 44,000 compounds went through this assay and about 30 (0.07%) were called active. Inconclusive means that the source gave no clear call. Such entries were picked first, then a sample of the others. No stated cut-off is given here; in the data, active means inhibition above about 54% (passing the limit was not always enough); inconclusive means no clear call, values can overlap the other calls.

target: Histone-lysine N-methyltransferase NSD2 (Homo sapiens) (UniProt O96028); experiment: NSD2 histone methyltransferase activity blockers – biochemical, plate reader, single point, primary screen (AID 624260); details: NSD2-SET H3K36me1 DELFIA fluorescence, at 12.5 µM, stronger effect = higher value;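 further: inhibitors reduce the monomethyl H3K36 fluorescence signal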
Chain of UniProt O96028 (O96028 whole entry, looked up): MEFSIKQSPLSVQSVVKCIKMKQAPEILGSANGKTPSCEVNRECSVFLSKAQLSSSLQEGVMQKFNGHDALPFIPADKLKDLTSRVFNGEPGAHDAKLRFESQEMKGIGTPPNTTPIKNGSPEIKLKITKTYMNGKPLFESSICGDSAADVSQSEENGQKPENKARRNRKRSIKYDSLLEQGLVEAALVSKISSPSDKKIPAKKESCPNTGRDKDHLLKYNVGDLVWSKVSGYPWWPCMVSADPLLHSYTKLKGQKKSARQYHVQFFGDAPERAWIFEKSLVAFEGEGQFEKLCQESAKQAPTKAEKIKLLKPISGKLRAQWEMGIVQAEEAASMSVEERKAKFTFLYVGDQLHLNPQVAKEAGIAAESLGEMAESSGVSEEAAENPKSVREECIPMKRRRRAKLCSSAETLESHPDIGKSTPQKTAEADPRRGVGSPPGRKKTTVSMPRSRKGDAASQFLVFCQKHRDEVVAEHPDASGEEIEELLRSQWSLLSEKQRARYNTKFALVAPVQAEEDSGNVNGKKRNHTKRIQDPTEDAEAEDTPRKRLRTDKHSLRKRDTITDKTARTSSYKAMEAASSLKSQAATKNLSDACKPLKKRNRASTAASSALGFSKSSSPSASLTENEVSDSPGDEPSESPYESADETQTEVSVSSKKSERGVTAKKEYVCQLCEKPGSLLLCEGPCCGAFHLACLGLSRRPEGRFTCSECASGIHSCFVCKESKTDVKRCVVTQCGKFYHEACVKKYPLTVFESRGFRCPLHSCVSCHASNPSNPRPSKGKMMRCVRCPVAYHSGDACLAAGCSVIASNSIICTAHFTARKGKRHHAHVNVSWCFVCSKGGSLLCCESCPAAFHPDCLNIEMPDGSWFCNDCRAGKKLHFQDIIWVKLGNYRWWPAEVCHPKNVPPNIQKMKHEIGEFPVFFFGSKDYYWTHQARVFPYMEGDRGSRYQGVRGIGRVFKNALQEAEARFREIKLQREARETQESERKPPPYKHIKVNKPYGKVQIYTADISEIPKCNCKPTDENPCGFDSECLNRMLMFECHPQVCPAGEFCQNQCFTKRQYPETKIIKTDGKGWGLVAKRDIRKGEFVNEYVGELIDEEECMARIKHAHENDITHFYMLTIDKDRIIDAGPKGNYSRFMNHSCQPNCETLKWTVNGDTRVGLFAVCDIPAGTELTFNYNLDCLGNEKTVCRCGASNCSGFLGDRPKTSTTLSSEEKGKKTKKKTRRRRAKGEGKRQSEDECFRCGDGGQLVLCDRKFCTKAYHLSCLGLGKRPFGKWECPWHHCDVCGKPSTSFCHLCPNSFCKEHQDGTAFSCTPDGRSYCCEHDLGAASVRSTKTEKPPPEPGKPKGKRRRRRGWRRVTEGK

Compound | inhibition
C[C@H](CO)N1C[C@H](C)[C@@H](CN(C)C(=O)Nc2ccc(C(F)(F)F)cc2)Oc2c(NC(=O)C3CCOCC3)cccc2C1=O | inconclusive: 97.7%
CC(C)CC#Cc1ccc2c(c1)O[C@H](CN(C)C(=O)c1ccncc1)[C@H](C)CN([C@H](C)CO)S2(=O)=O | inconclusive: 184%
CC(C)(C)N(CCO)C(=O)CN1C(=O)/C(=C/c2cccc(Br)c2)SC1=S | inactive: -6.22%
O=C(CCCCCC(=O)NN=C1CCCCCCC1)NO | inactive: -2.94%
COc1ccc(C#Cc2ccc3c(c2)O[C@H](CN(C)C(=O)NC2CCCCC2)[C@H](C)CN([C@H](C)CO)S3(=O)=O)cc1 | inactive: -2.63%
COCC(=O)N(C)C[C@@H]1Oc2cc(-c3ccncc3)ccc2S(=O)(=O)N([C@H](C)CO)C[C@H]1C | inactive: 2.44%
COc1ccc(C#Cc2ccc3c(c2)O[C@@H](CN(C)C(=O)c2ccccn2)[C@H](C)CN([C@H](C)CO)S3(=O)=O)cc1 | inactive: 2.01%
C[C@@H]1CN([C@@H](C)CO)C(=O)c2cc(NS(=O)(=O)c3ccccc3)ccc2O[C@@H](C)CCCCO[C@H]1CN(C)C(=O)CCCN(C)C | inconclusive: 66.2%
C[C@H](CO)N1C[C@H](C)[C@@H](CN(C)C(=O)CCC(F)(F)F)OCCCC[C@H](C)Oc2ccc(N(C)C)cc2C1=O | inconclusive: 111%
O=C(C[C@H]1C[C@H]2c3cc(NC(=O)CC4CC4)ccc3O[C@H]2[C@H](CO)O1)NCc1ccccn1 | inactive: -2.07%
Cc1noc(C)c1NC(=O)Nc1cccc2c1O[C@H](CN(C)Cc1ccc(C(=O)O)cc1)[C@H](C)CN([C@H](C)CO)C2=O | inconclusive: 176%
O=C1CCC(=O)N1Nc1nc2ccccc2c2nc(-c3ccccc3)nn12 | inactive: 6.52%
CNC[C@@H]1OCCCC[C@H](C)Oc2ccc(NC(=O)c3ccncc3)cc2C(=O)N([C@H](C)CO)C[C@H]1C | inconclusive: 174%
C=CCSc1n[nH]c(-c2ccc(C(F)(F)F)cc2)n1 | inactive: -6.37%
CC1(C)Cc2c(sc3c2c(=O)n(Cc2ccccc2)c2nnc(SCC(=O)c4ccc(Br)cc4)n32)CO1 | inactive: 7.58%
C[C@H]1CN([C@@H](C)CO)C(=O)c2cc(NS(=O)(=O)c3cn(C)cn3)ccc2O[C@H]1CN(C)C | inconclusive: 52.2%
CNC[C@@H]1OCCCC[C@@H](C)Oc2ccc(NS(=O)(=O)c3ccccc3)cc2C(=O)N([C@H](C)CO)C[C@@H]1C | inconclusive: 76%
CCC(=O)N(C)C[C@H]1Oc2cc(C#CCC3CCCC3)ccc2S(=O)(=O)N([C@@H](C)CO)C[C@H]1C | inconclusive: 178%
CN(C(=S)SCc1ccccc1)c1ccccc1 | inactive: 30.3%
CC(C)=CCc1c(O[C@@H]2O[C@H](CO)[C@@H](O)[C@H](O)[C@H]2O)cc(O)c2c1O[C@H](c1ccc(O)cc1)CC2=O | active: 70.5%
Cc1ccc(S(=O)(=O)N(C)C[C@@H]2OCCCC[C@H](C)Oc3ccc(NS(=O)(=O)c4ccc(Cl)cc4)cc3C(=O)N([C@@H](C)CO)C[C@H]2C)cc1 | inactive: -2.79%

Compound | inhibition
CC(C)NC(=O)Nc1cccc2c1O[C@H](CN(C)Cc1ccc(Oc3ccccc3)cc1)[C@@H](C)CN([C@H](C)CO)C2=O | inconclusive: 172%
C[C@H](CO)N1C[C@H](C)[C@@H](CN(C)C(=O)C2CCCCC2)Oc2cc(-c3cncnc3)ccc2S1(=O)=O | inactive: -0.393%
C=C(C)[C@@H]1CC=C(/C=N/NC(=O)CCCCCC(=O)O)CC1 | inactive: 3.73%
C[C@H](CO)N1C[C@H](C)[C@@H](CN(C)S(=O)(=O)c2ccc(F)cc2)Oc2c(NC(=O)c3ccncc3)cccc2C1=O | inconclusive: 87.3%
C[C@@H]1CCCCO[C@H](CN(C)C)[C@@H](C)CN([C@H](C)CO)C(=O)c2cc(NC(=O)CCC(F)(F)F)ccc2O1 | inconclusive: 65.1%
CCCCC/C=C/C=C/C(O)CCCCCCCC(=O)O (configuration not stated) | inactive: -2.58%
COCC(=O)N(C)C[C@@H]1Oc2ncc(-c3ccccc3F)cc2C(=O)N([C@@H](C)CO)C[C@H]1C | inconclusive: 170%
CCCC#Cc1cnc2c(c1)C(=O)N([C@H](C)CO)C[C@@H](C)[C@H](CN(C)Cc1ccccc1)O2 | inconclusive: 87.3%
CC1(C)C=C(c2ccc(C3=CC(C)(C)NC(C)(C)C3)s2)CC(C)(C)N1 | inactive: 4.69%
COC(=O)[C@@H](O)[C@H]1[C@@]2(C)C[C@]3(O)C4[C@@H](O[C@]56CC(=O)O[C@@H](c7ccoc7)[C@@]5(C)CCC([C@]46O)[C@]13C)[C@H]2O (some centres not stated) | active: 75.6%
COCC(=O)N(C)C[C@@H]1Oc2ncc(C#Cc3ccncc3)cc2C(=O)N([C@H](C)CO)C[C@@H]1C | inconclusive: 84.1%
C[C@H]1CN([C@@H](C)CO)C(=O)c2cc(C#Cc3ccncc3)cnc2O[C@@H]1CN(C)CC1CCOCC1 | inconclusive: 155%
C[C@@H]1CCCCO[C@H](CN(C)C(=O)c2ccccc2)[C@@H](C)CN([C@@H](C)CO)C(=O)c2cc(NS(=O)(=O)c3ccccc3)ccc2O1 | inconclusive: 80%
CC(C)C#Cc1ccc2c(c1)O[C@H](CN(C)S(=O)(=O)c1cn(C)cn1)[C@H](C)CN([C@H](C)CO)S2(=O)=O | inconclusive: 53.1%
C[C@H](CO)N1C[C@H](C)[C@@H](CN(C)Cc2ccncc2)OCCCC[C@H](C)Oc2ccc(NS(C)(=O)=O)cc2C1=O | inconclusive: 91.3%
C[C@@H]1CCCCO[C@@H](CN(C)C)[C@@H](C)CN([C@H](C)CO)C(=O)c2cc(NC(=O)Cc3ccccc3)ccc2O1 | inconclusive: 66.9%
COc1ccc(NC(=O)N(C)C[C@@H]2Oc3ccc(NC(=O)C4CC4)cc3C(=O)N([C@@H](C)CO)C[C@H]2C)cc1 | inactive: 0.64%
O=C(CCCCCC(=O)N/N=C/c1ccccc1)NO | inactive: -9.51%
C[C@@H]1CCCCO[C@H](CN(C)C(=O)Cc2ccccc2)[C@H](C)CN([C@@H](C)CO)C(=O)c2cc(NS(=O)(=O)c3ccc(F)cc3)ccc2O1 | inactive: 6.79%
CCC(=O)N(C)C[C@@H]1Oc2ncc(C#CCC3CCCC3)cc2C(=O)N([C@H](C)CO)C[C@H]1C | inconclusive: 67.1%
O=C(C[C@H]1C[C@@H]2c3cc(NC(=O)CC4CC4)ccc3O[C@@H]2[C@@H](CO)O1)NCc1cc(F)ccc1F | inactive: 9.35%

Compound | inhibition
C[C@@H]1CN([C@@H](C)CO)C(=O)c2cc(-c3cccc(F)c3)cnc2O[C@@H]1CN(C)Cc1ccccc1 | inactive: -9.63%
CCC(=O)N(C)C[C@H]1Oc2ncc(-c3cccc(OC)c3)cc2C(=O)N([C@@H](C)CO)C[C@@H]1C | inconclusive: 60.8%
C[C@H]1CN([C@@H](C)CO)C(=O)c2cccc(NC(=O)C3CCOCC3)c2O[C@H]1CN(C)C | inconclusive: 82.3%
O=C(NO)c1ccc(C(=O)N/N=C/c2ccc3ccccc3c2)cc1 | active: 61.8%
C[C@H](CO)N1C[C@H](C)[C@@H](CN(C)C)Oc2cc(C#Cc3ccccc3)ccc2S1(=O)=O | inactive: -6.31%
O=C(N/N=C/c1ccccc1OCCO)c1ccccn1 | inactive: -2.76%
COc1ccc(/C=N/NC(=O)CCCCCCC(=O)Nc2ccccc2O)c(OC)c1 | inactive: -0.64%
C[C@H]1CN([C@@H](C)CO)C(=O)c2ccccc2-c2ccccc2CO[C@@H]1CN(C)C(=O)Oc1ccccc1 | inconclusive: 169%
CNC[C@@H]1OCCCC[C@@H](C)Oc2ccc(NC(=O)Nc3ccccc3)cc2C(=O)N([C@H](C)CO)C[C@H]1C | inconclusive: 171%
O=C(N[C@H]1CC[C@@H](CC(=O)N2CCc3ccccc3C2)O[C@H]1CO)C1CCC1 | inactive: -2.68%
CC1=CCC(C(C)(C)O[C@@H]2O[C@H](CO[C@@H]3O[C@H](COC(=O)c4cc(O)c(O)c(O)c4)[C@@H](O)[C@H](O)[C@H]3O)[C@@H](O)[C@H](O)[C@H]2O)CC1 (some centres not stated) | inconclusive: 50.1%
COc1cc(C2Oc3c(OC)cc(CCCO)cc3C2CO)ccc1O[C@H]1O[C@H](C)[C@@H](O)[C@H](O)[C@@H]1O (some centres not stated) | active: 59.1%
CC(C)NC(=O)N(C)C[C@@H]1OCCCC[C@@H](C)Oc2ccc(NC(=O)CCC(F)(F)F)cc2C(=O)N([C@H](C)CO)C[C@H]1C | inconclusive: 176%
C[C@H](CO)N1C[C@H](C)[C@H](CN(C)Cc2ccncc2)Oc2ccc(NC(=O)Nc3ccc(C(F)(F)F)cc3)cc2CC1=O | inconclusive: 118%
C[C@H](CO)N1C[C@H](C)[C@H](CN(C)C(=O)Nc2ccc(F)cc2)Oc2ccc(NC(=O)C3CC3)cc2CC1=O | inconclusive: 149%
C[C@@H]1CN([C@@H](C)CO)C(=O)Cc2cc(NC(=O)Cc3cn(C)c4ccccc34)ccc2O[C@H]1CN(C)S(=O)(=O)c1cn(C)cn1 | inconclusive: 89.3%
CCC(=O)Nc1ccccc1-c1nnc(SCc2ccccc2)[nH]c1=O | inactive: 5.92%
CC(C)NC(=O)N(C)C[C@@H]1OCCCC[C@@H](C)Oc2ccc(N(C)C)cc2C(=O)N([C@@H](C)CO)C[C@H]1C | inconclusive: 101%
COc1ccc(COC[C@@]23Oc4ccccc4[C@@H](NC(=O)N2C)[C@H]3COC(=O)c2ccccc2)cc1 | inactive: 5.81%
C[C@H](CO)N1C[C@H](C)[C@H](CN(C)Cc2cncnc2)Oc2ncc(C#CC(C)(C)O)cc2C1=O | inconclusive: 166%
